Laboratory results from PubChem BioAssay AID894 (National Center for Advancing Translational Sciences (NCATS), 2007).
The campaign covered roughly 150,000 compounds. About 6,500 (4.3%) were called active. The shares of active, inactive and inconclusive entries below differ from those in the screen. The call rests on the fitted dose curve; in most records, active means well fitted inhibition curve with a large enough effect (not every such curve was filed as active); inconclusive means small, poorly fitted or top-dose-only effect, or another doubt; inactive means no such curve, though single readings can be large or run the other way. No potency is given beside an inconclusive call; the fits are too rough.

biological target: 15-hydroxyprostaglandin dehydrogenase [NAD(+)] (Homo sapiens) (UniProt P15428); test: qHTS Assay for Inhibitors of HPGD (15-Hydroxyprostaglandin Dehydrogenase); details: purified HPGD, NADH fluorescence kinetic, PGE2 substrate; activity change, negative = inhibition: active compounds read low
Summary of the method: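 NADH formation kinetics: reaction with 30 uM PGE2 and 1 mM NAD+ (final), 20 nM enzyme, Tris-HCl pH 8 with Tween 20, after 15 min compound preincubation at room temperature. Fluorescence change, last versus first of five reads.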
On the % scale 0 is the no-effect control and ±100 the full control effect; potency means the concentration at half of the fitted maximal effect; tags describe the fitted curve by direction and shape.

Chain of UniProt P15428 (P15428 whole entry, looked up): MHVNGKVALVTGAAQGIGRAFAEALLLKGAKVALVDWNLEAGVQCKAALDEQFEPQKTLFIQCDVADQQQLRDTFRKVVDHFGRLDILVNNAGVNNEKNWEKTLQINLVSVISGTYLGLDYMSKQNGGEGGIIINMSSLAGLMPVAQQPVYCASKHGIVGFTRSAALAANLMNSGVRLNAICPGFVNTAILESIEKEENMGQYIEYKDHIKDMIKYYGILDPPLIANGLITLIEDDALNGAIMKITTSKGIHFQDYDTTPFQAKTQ

SMILES	Potency	activity change, negative = inhibition
COc1ccc(-c2cn3ccc4ccccc4c3n2)cc1	inconclusive [inhibitor, partial curve]	
Clc1ccc(CSc2nnnn2-c2ccc3c(c2)OCO3)c(Cl)c1		inactive: -11.8%
O=c1c2ccccc2sn1-c1cc(S(=O)(=O)N2CCOCC2)ccc1N1CCOCC1	active: 0.794 µM	
O=C(c1nn(Cc2ccccc2)c(=O)c2ccccc12)N1CCN(c2ccccn2)CC1		inactive: -6.92%
O=C(NCc1cccnc1)C(=O)NCC(c1ccco1)N1CCN(c2ccc(F)cc2)CC1 (stereo not given)		inactive: -14.3%
CCn1c2ccccc2c2cc(NC(=O)COc3ccccc3OC)ccc21	inconclusive [inhibitor, single point]	
O=C(NCc1cccnc1)C(=O)NCC1OCCN1S(=O)(=O)c1ccc(Cl)cc1 (stereo not given)		inactive: -6.13%
O=C(Oc1oc(-c2ccco2)nc1C=Nc1ccc(Cl)cc1)c1ccco1	inconclusive [inhibitor, full curve]	
Cc1cc2cc(CN(Cc3cccs3)C(=S)NCc3ccco3)c(=O)[nH]c2cc1C	inconclusive [inhibitor, partial curve, poor fit]	
CCN(c1ccccc1)S(=O)(=O)c1ccc(Cl)c(NC(=O)COC(=O)c2ccc(Cl)c(N)c2)c1	inconclusive [inhibitor, partial curve]	
COc1ccc(-c2nc(C3CCCCC3)no2)cc1OC	inconclusive [inhibitor, single point]	
CC(=O)N1CCCc2cc(S(=O)(=O)N(C)Cc3ccccc3)ccc21	active: 31.6 µM	
O=C(COc1ccc(/C=N/NS(=O)(=O)c2ccccc2)cc1)NCc1ccccc1	inconclusive [inhibitor, partial curve, poor fit]	
Cc1cc(S(=O)(=O)NCc2cccnc2)ccc1-n1cnnn1		inactive: -2.41%
O=C(CCN1C(=O)COc2ccccc21)N1CCN(c2ccccn2)CC1		inactive: -15%
CC(C)OC(=O)c1ccc(NC(=O)c2ccccc2)cc1		inactive: -13.9%
Cc1ccc2c(c1)c1c3n2CCN(C(=O)C2CC2)C3CCC1 (stereo not given)		inactive: -16.6%
COc1ccc(-c2nc(CS(=O)CC(=O)NCCCN3CCCC3)c(C)o2)cc1OC (stereo not given)	inconclusive [inhibitor, partial curve]	
COc1ccc(Nc2nnc(SCc3cc(=O)n4ccsc4n3)s2)cc1	active: 31.6 µM	
O=C1CCC(=O)N1c1cccc(-c2nc3ccccc3o2)c1	inconclusive [inhibitor, partial curve]	
CCn1c(SCC(=O)Nc2nnc(C)s2)nnc1-c1ccncc1		inactive: -10.2%
COc1ccccc1N(C(=O)NCc1ccccc1)C1=NCC(C)S1 (stereo not given)		inactive: -6.63%
O=[N+]([O-])c1ccccc1NCCNc1ncc(C(F)(F)F)cc1Cl		inactive: -16.4%
COc1ccc(C(=O)N2N=C3CC(C)(C)OCC3C2c2ccccc2)cc1 (stereo not given)		inactive: -1.04%
N#Cc1c(N)nc(SCc2ccncc2)c(C#N)c1-c1cccs1	inconclusive [inhibitor, partial curve]	

SMILES	Potency	activity change, negative = inhibition
CCN(CC)c1ccc(NS(=O)(=O)c2ccc3c(c2)oc(=O)n3C)c(C)c1	active: 12.6 µM	
CC(C(=O)Nc1ccccc1C(=O)N1CCCC1)n1nnc2ccccc21 (stereo not given)		inactive: 0.442%
O=C(O)CCc1ccc(-c2ccc(Cl)cc2)n1CCC(=O)O	inconclusive [inhibitor, single point]	
COc1nc(C#N)nc(N(C)C)n1		inactive: -4.34%
CC(=O)OC1CCC23CC1(C)CCC2C(C)(C)CC3OC(C)=O (stereo not given)		inactive: -3.47%
CS(=O)(=O)Nc1nnc(Cc2ccccc2)s1		inactive: -24.2%
COc1ccc(-c2ccc(CCC(=O)O)n2CC(C)C)cc1	inconclusive [inhibitor, partial curve]	
O=C(COc1cccc2cccnc12)N1CCc2ccccc2C1	inconclusive [inhibitor, single point]	
CN1Cc2cc(C(=O)c3cc(Cl)cc(CSc4ncccn4)c3O)cnc2NC1=O	active: 14.1 µM	
CC1CCCCN1C(=O)c1cc(F)c(F)cc1Cl (stereo not given)	active: 20 µM	
CC1CCCCN1C(=O)Nc1cccc(Cl)c1 (stereo not given)	active: 22.4 µM	
O=[N+]([O-])c1cc2c(cc1/C=N/n1c(-c3ccccc3)n[nH]c1=S)OCO2	active: 3.16 µM	
COc1ccc2[nH]cc(CCNC(C)=O)c2c1	inconclusive [inhibitor, partial curve]	inactive: -5.48% [middle of 5 runs]
Cc1cnc(CNc2ccnc(-c3ccc(C(=O)N(C)C)cc3)n2)cn1	active: 5.62 µM	
O=C(CCCOc1ccc(Cl)cc1Cl)n1nnc2ccccc21	active: 8.91 µM	
O=C(CSc1ncn(-c2ccccc2)n1)Nc1ccc(Br)cn1	active: 28.2 µM	
COc1ccccc1Nc1ncnc2c1cnn2-c1cccc(C)c1	inconclusive [inhibitor, partial curve]	
CSc1ccc(C(=S)N2CCN(C)CC2)cc1	active: 28.2 µM	
COC(=O)c1ccc(CSc2ncnc3c2nnn3-c2ccc(OC)cc2)o1	inconclusive [inhibitor, partial curve]	
CC[C@@]1(O)C(=O)COc2c1cc1n(c2=O)Cc2c-1nc1cccc(C(C)C)c1c2[Si](C)(C)C	inconclusive [inhibitor, full curve]	
O=C(Nc1ccc(N2CCOCC2)c(Cl)c1)C1CCCCC1	inconclusive [inhibitor, partial curve]	
CCOc1ccc(-n2c(N)c(C(=O)NCc3ccco3)c3nc4ccccc4nc32)cc1	inconclusive [inhibitor, partial curve]	
Cc1cc(C)c2c(n1)nn1c(NCCN3CCOCC3)cc(C)nc21	inconclusive [inhibitor, partial curve]	
CCOC(=O)c1c(NC(=O)c2cc(C(C)C)on2)sc(C(C)=O)c1C	inconclusive [inhibitor, partial curve]	
